Source: the supplement of paper PMC4967469
pIC50: −log10 of the molar value. IC50 is the fitted dose that halves viability relative to control wells, and lower means more sensitive; a limit (>, <) means that the fit lies beyond the doses tested. For AUC the same curve is integrated over the 256-fold range of doses and scaled to a fraction; values near 1 show little effect. For part of these data: A top dose marked as inferred was calculated from the reported fits.

Assays:
Test in all cases: Viability of human cancer cell lines after 72 h of drug (GDSC screen)
[1] = compound: O=C(CCCCCCC(=O)Nc1ccccc1)NO [Vorinostat]; conditions: top dose 10 µM
Procedure: (§1)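 Human cancer cell lines in 384-well plates, medium with 10% serum, drug for 72 h over a 256-fold dose range (nine 2-fold or five 4-fold steps up to the top dose). Adherent lines were fixed and stained with the nucleic acid dye Syto60, suspension lines read with resazurin; signal relative to control wells, capped at 0 and 100%. One two-parameter sigmoid per drug and line, fitted in a mixed model over all curves with the slope shared within a line.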

[2] = compound: CNC(=O)c1ccccc1Sc1ccc2c(/C=C/c3ccccn3)n[nH]c2c1 [Axitinib]; conditions: top dose 2 µM
Procedure: as §1

[3] = compound: CC(C)(C)c1nc(-c2cccc(NS(=O)(=O)c3c(F)cccc3F)c2F)c(-c2ccnc(N)n2)s1 [Dabrafenib]; conditions: top dose 10 µM
Procedure: as §1

[4] = compound: CN(Cc1cnc2nc(N)nc(N)c2n1)c1ccc(C(=O)N[C@@H](CCC(=O)O)C(=O)O)cc1 [Methotrexate]; conditions: top dose 0.2 µM
Procedure: as §1

[5] = compound: CCc1c2c(nc3ccc(O)cc13)-c1cc3c(c(=O)n1C2)COC(=O)[C@]3(O)CC [SN-38]; conditions: top dose 0.05 µM; top dose inferred
Procedure: as §1

Cell Line	AUC [1]	pIC50 [1]	AUC [2]	pIC50 [2]	AUC [3]	pIC50 [3]	AUC [4]	pIC50 [4]	AUC [5]	pIC50 [5]
NCI-H1666 (lung adenocarcinoma, semi-adherent)	0.681	5.68	0.985	< 5.70	0.874	< 5.00	0.912	< 6.70	0.733	7.81
DOK (head and neck, adherent)	0.642	5.72	0.881	< 5.70	0.85	< 5.00	0.904	< 6.70	0.705	7.79
JHH-7 (liver, adherent)	0.81	5.31	0.94	< 5.70	0.869	5.08	0.989	< 6.70	0.805	7.63
LB831-BLC (bladder, adherent)	0.872	5.01	0.987	< 5.70	0.979	< 5.00	0.956	< 6.70	0.697	7.95
42-MG-BA (glioma, adherent)	0.826	5.18	0.927	< 5.70	0.973	< 5.00	0.932	< 6.70	0.529	8.42
CAL-72 (osteosarcoma, adherent)	0.738	5.46	0.945	< 5.70	0.911	< 5.00	0.917	< 6.70	0.617	8.16
SK-MG-1 (glioma, adherent)	0.708	5.61	0.947	< 5.70	0.965	< 5.00	0.987	< 6.70	0.606	8.21
LAMA-84 (chronic myeloid leukaemia, suspension)	0.422	6.42	0.393	7.20	0.94	< 5.00	0.488	7.94	0.944	< 7.30
EHEB (lymphoid neoplasm, suspension)	0.558	6.02	0.972	< 5.70	0.812	5.06	0.909	< 6.70	0.874	< 7.30
KMOE-2 (acute myeloid leukaemia, suspension)	0.434	6.38	0.933	< 5.70	0.797	5.38	0.636	7.55	0.796	7.69
PF-382 (T-cell lymphoblastic leukaemia, suspension)	0.591	5.97	0.979	< 5.70	0.99	< 5.00	0.646	7.52	0.746	7.85
FLO-1 (oesophagus, adherent)	0.622	5.80	0.922	< 5.70	0.792	5.16	0.882	< 6.70	0.878	< 7.30
G-361 (melanoma, adherent)	0.356	6.60	0.977	< 5.70	0.12	7.39	0.915	< 6.70	0.841	7.48
SCC-25 (head and neck, adherent)	0.801	5.25	0.979	< 5.70	0.948	< 5.00	0.971	< 6.70	0.904	< 7.30
OE21 (oesophagus, adherent)	0.583	5.94	0.86	< 5.70	0.951	< 5.00	0.887	< 6.70	0.802	7.44
SK-MEL-31 (melanoma, adherent)	0.829	5.06	0.978	< 5.70	0.955	< 5.00	0.978	< 6.70	0.937	< 7.30
RCC-ER (kidney, adherent)	0.789	5.30	0.95	< 5.70	0.847	5.06	0.986	< 6.70	0.734	7.80
CAL-51 (breast, adherent)	0.715	5.64	0.944	< 5.70	0.833	5.28	0.972	< 6.70	0.445	8.64
JHOS-2 (ovary, adherent)	0.804	5.22	0.965	< 5.70	0.884	< 5.00	0.983	< 6.70	0.552	8.35
H290 (mesothelioma, adherent)	0.513	6.17	0.907	< 5.70	0.915	< 5.00	0.985	< 6.70	0.534	8.42
ALL-SIL (T-cell leukaemia, suspension)	0.494	6.22	0.685	6.42	0.763	5.50	0.837	6.96	0.301	9.03
PCI-6A (head and neck, adherent)	0.462	6.31	0.835	5.89	0.984	< 5.00	0.814	6.97	0.776	7.71
CP66-MEL (melanoma, adherent)	0.798	5.26	0.937	< 5.70	0.948	< 5.00	0.986	< 6.70	0.861	< 7.30
MHH-ES-1 (Ewing sarcoma, adherent)	0.602	5.92	0.756	6.17	0.977	< 5.00	0.738	7.23	0.279	9.13
EW-18 (Ewing sarcoma, suspension)	0.506	6.19	0.928	< 5.70	0.973	< 5.00	0.908	< 6.70	0.932	< 7.30
647-V (bladder, adherent)	0.812	5.27	0.985	< 5.70	0.982	< 5.00	0.977	< 6.70	0.31	9.04

Cell Line	AUC [1]	pIC50 [1]	AUC [2]	pIC50 [2]	AUC [3]	pIC50 [3]	AUC [4]	pIC50 [4]	AUC [5]	pIC50 [5]
Ca-Ski (cervix, adherent)	0.677	5.68	0.887	< 5.70	0.95	< 5.00	0.94	< 6.70	0.536	8.40
MC-CAR (haematopoietic neoplasm, suspension)	0.561	6.05	0.868	5.82	0.916	< 5.00	0.781	7.13	0.753	7.82
COLO-678 (large intestine, semi-adherent)	0.904	< 5.00	0.98	< 5.70	0.955	< 5.00	0.978	< 6.70	0.893	< 7.30
KARPAS-620 (haematopoietic neoplasm, suspension)	0.669	5.77	0.925	< 5.70	0.913	< 5.00	0.899	6.72	0.957	< 7.30
CGTH-W-1 (thyroid, adherent)	0.589	5.96	0.141	8.02	0.926	< 5.00	0.556	7.75	0.599	8.24
DMS-53 (small cell lung carcinoma, adherent)	0.821	5.20	0.986	< 5.70	0.96	< 5.00	0.988	< 6.70	0.623	8.16
SK-MEL-3 (melanoma, adherent)	0.777	5.33	0.983	< 5.70	0.251	6.98	0.924	< 6.70	0.881	< 7.30
MDA-MB-330 (breast, adherent)	0.609	5.89	0.963	< 5.70	0.94	< 5.00	0.978	< 6.70	0.949	< 7.30
LAN-6 (neuroblastoma, adherent)	0.83	5.10	0.959	< 5.70	0.982	< 5.00	0.95	< 6.70	0.896	< 7.30
G-292 Clone A141B1 (osteosarcoma, adherent)	0.823	< 5.00	0.899	< 5.70	0.657	5.65	0.939	< 6.70	0.817	< 7.30
KP-3 (pancreas, adherent)	0.864	< 5.00	0.973	< 5.70	0.858	< 5.00	0.91	< 6.70	0.909	< 7.30
RCC10RGB (kidney, adherent)	0.84	< 5.00	0.963	< 5.70	0.946	< 5.00	0.972	< 6.70	0.705	7.68
OCUM-1 (stomach, adherent)	0.627	5.84	0.924	< 5.70	0.967	< 5.00	0.987	< 6.70	0.698	7.92
NCI-H720 (lung carcinoid, suspension)	0.698	5.67	0.919	< 5.70	0.987	< 5.00	0.984	< 6.70	0.991	< 7.30
NCI-H2009 (lung adenocarcinoma, adherent)	0.566	6.02	0.929	< 5.70	0.973	< 5.00	0.985	< 6.70	0.574	8.30
OSC-20 (head and neck, adherent)	0.734	5.48	0.918	< 5.70	0.953	< 5.00	0.96	< 6.70	0.662	8.02
LS-1034 (large intestine, adherent)	0.871	< 5.00	0.975	< 5.70	0.985	< 5.00	0.972	< 6.70	0.861	7.30
GB-1 (glioma, adherent)	0.723	5.52	0.967	< 5.70	0.898	< 5.00	0.982	< 6.70	0.532	8.41
PA-TU-8902 (pancreas, adherent)	0.788	5.28	0.983	< 5.70	0.933	< 5.00	0.976	< 6.70	0.525	8.43
Ramos-2G6-4C10 (Burkitt lymphoma, suspension)	0.392	6.48	0.886	5.78	0.99	< 5.00	0.708	7.36	0.915	< 7.30
NTERA-2 cl.D1 (testis, adherent)	0.633	5.84	0.892	< 5.70	0.96	< 5.00	0.954	< 6.70	0.203	9.38
MHH-PREB-1 (B-cell leukaemia, suspension)	0.543	6.09	0.96	< 5.70	0.943	< 5.00	0.447	8.04	0.716	7.93
COLO-800 (melanoma, adherent)	0.654	5.78	0.902	< 5.70	0.967	< 5.00	0.793	7.05	0.199	9.38
LB2518-MEL (melanoma, adherent)	0.761	5.43	0.987	< 5.70	0.97	< 5.00	0.975	< 6.70	0.909	< 7.30
COLO-824 (breast, adherent)	0.865	5.04	0.987	< 5.70	0.985	< 5.00	0.988	< 6.70	0.894	< 7.30
